Results on 50 compounds are retold here after publication PMC6919601, “Identification of Plasmodium dipeptidyl aminopeptidase allosteric inhibitors by high throughput screening” (PLoS ONE, 2019).

About 230 (0.21%) of roughly 110,000 compounds showed an effect of 50% or more. This is one part of the list.
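Further: 30 min substrate incubation versus DMSO and 10 µM JCP410 controls.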

The target in the test is DPAP1 (Plasmodium falciparum, UniProt Q8IIJ9). Briefly: primary screen, percent inhibition; read by cleavage of a fluorogenic dipeptide substrate; higher = more effect of the substance. Set-up: species or system P. falciparum D10 trophozoite lysates; single well.
DPAP1, sequence (Q8IIJ9 whole entry, looked up): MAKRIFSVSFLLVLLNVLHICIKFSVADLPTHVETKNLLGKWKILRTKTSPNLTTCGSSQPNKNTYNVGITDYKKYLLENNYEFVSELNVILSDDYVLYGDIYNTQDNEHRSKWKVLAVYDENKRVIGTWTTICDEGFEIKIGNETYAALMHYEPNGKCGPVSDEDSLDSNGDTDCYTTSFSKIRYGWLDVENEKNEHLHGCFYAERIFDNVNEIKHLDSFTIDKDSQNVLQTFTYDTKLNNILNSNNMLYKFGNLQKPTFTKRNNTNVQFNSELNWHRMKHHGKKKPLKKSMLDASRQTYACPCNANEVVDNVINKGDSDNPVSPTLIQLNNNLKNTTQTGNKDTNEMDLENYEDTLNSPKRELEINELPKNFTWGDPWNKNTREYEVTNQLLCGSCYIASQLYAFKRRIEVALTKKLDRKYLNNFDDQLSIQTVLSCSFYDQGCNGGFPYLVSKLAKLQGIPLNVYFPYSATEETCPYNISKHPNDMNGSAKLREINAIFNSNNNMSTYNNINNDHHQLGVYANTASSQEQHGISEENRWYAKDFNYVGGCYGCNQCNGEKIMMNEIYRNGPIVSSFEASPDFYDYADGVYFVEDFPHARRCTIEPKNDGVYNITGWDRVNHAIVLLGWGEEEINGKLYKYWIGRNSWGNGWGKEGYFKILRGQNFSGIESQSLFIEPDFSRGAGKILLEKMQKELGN
As for `Cc1cc(/C=C2/NC(=O)N(c3cccc(Cl)c3)C2=O)c(C)n1C(C)C`, the “% Inhibition @ 10 uM” value is on record as -3.39%.
For the compound `Cc1oc(-c2ccc(C(=O)NC(C)c3ccccc3)cc2)nc1CS(=O)c1ccccc1` (centres unmarked), the “% Inhibition @ 10 uM” value is 0.453%.
As for `CC1CCN(Cc2cccn2-c2nnc(N3CCN(Cc4ccccc4)CC3)s2)CC1`, the “% Inhibition @ 10 uM” value was -1.79%.
On to `CC(=O)Nc1ccc(C(=O)Nc2ccc(Cl)c(Cl)c2)cc1`, for which the “% Inhibition @ 10 uM” value is on record as -0.197%.
Take `CCCc1cc(NCCCN2CCOCC2)n2c(nc3ccccc32)c1C#N`: the “% Inhibition @ 10 uM” value turned out to be 2.56%.
Consider `CN1CCN(C(=O)C2CC(c3c(F)cccc3Cl)=NO2)CC1` (centres unmarked), for which the “% Inhibition @ 10 uM” value was 1.91%.
As for `NC(=O)CN1C(=O)c2cccc3cccc1c23`, the “% Inhibition @ 10 uM” value was -4.48%.
With `CCC(NC(=O)c1ccccc1NC(=O)c1ccc(OC)cc1)C(=O)Nc1cccc2ccccc12` (centres unmarked), the “% Inhibition @ 10 uM” value is on record as 5.6%.
For `COc1ccccc1C(=O)N1CCN(c2cccc(Cl)c2)CC1`, the “% Inhibition @ 10 uM” value is 3.48%.
`Cc1noc(C)c1S(=O)(=O)N1CCC(C(=O)N2CC(=O)N(CCc3ccccc3)C(=O)C2)CC1`: the “% Inhibition @ 10 uM” value amounted to 0.402%.
For `O=C(O)C1CC=CCC1C(=O)OCC(Cl)=C(Cl)Cl` (centres unmarked), the “% Inhibition @ 10 uM” value is recorded as -0.216%.
With `O=C1c2ccccc2C(=O)c2cc(S(=O)(=O)N3CCCCCC3)ccc21`, the “% Inhibition @ 10 uM” value is recorded as -0.261%.
For `O=C(CSc1ccccc1)NCCSCc1ccc(Cl)cc1`, the “% Inhibition @ 10 uM” value was 4.01%.
The result for `CSc1nc(-c2ccco2)nn1C(=O)c1ccccc1` reads 0.778%; that for `CC(=O)/C(C#N)=C\Nc1ccc2c(c1)ncn2-c1ccc(Cl)cc1`, 3.05%.
As to `O=P(O)(Cc1ccccc1)Cc1ccccc1`, the “% Inhibition @ 10 uM” value is listed as -3.48%.
Take `COc1cccc(CNCc2ccc(C(F)(F)F)cc2)c1OC`: the “% Inhibition @ 10 uM” value is -7.08%.
Regarding `COC(=O)c1noc(-c2ccc(OC)cc2)n1`, the “% Inhibition @ 10 uM” value was 5.12%.
`CC1Cc2nc(SCC(=O)Nc3nc4ccccc4s3)n(CCc3ccccc3)c(=O)c2S1` (centres unmarked): the “% Inhibition @ 10 uM” value is reported as -1.62%.
For the compound `NC(=O)c1c(NC(=O)COc2ccc(Br)cc2)sc2c1CCCC2`, the “% Inhibition @ 10 uM” value is reported as 3.8%.
The result for `Cc1[nH]c2ccccc2c1C(O)c1ccccn1` (centres unmarked) reads -1.75%; that for `COC(=O)c1nnn(-c2cc(OC)cc(OC)c2)c1C(=O)OC`, -0.0521%; that for `CCN(CC)S(=O)(=O)c1ccc(NC(=O)Cc2ccccc2)cc1`, -4.14%.
Consider `COc1cc2c(cc1/C=C1/S/C(=N\c3ccc(N4CCOCC4)cc3)N(C)C1=O)OCO2`, for which the “% Inhibition @ 10 uM” value is -0.318%.
With `OCCN(CCO)Cc1c(F)cccc1F`, the “% Inhibition @ 10 uM” value was found to be 0.273%.
With `COc1cccc(OC)c1C(=O)Nc1cc(Cl)ccc1Cl`, the “% Inhibition @ 10 uM” value was -1.98%.
The result for `CCCCn1c(SCc2ccc(C)cc2)nc2c1c(=O)[nH]c(=O)n2C` reads 5.66%; that for `Cc1nn(C(C)C(=O)NC2CCCc3ccccc32)c(=O)c2cc3sccc3n12` (centres unmarked), 1.8%; that for `CCC(=O)c1ccc(N2CCN(C)CC2)c(F)c1`, 0.13%.
With `Cc1nn(Cc2ccc(C(=O)NCc3cccnc3)o2)c(C)c1Cl`, the “% Inhibition @ 10 uM” value is listed as -1.37%.
Regarding `COc1ccc(OCC(=O)Nc2ccc(S(=O)(=O)Nc3ccc(Cl)cc3)cc2)cc1`, the “% Inhibition @ 10 uM” value was determined as 5.39%.
For `COc1ccc(-c2coc3c(C)c4oc(=O)cc(C)c4cc23)cc1`, the “% Inhibition @ 10 uM” value stood at 3.81%.
As to `Cc1nnc(N2CCCC(C(=O)NCCCN3CCOCC3)C2)c2nn(-c3ccccc3)c(C)c12` (centres unmarked), the “% Inhibition @ 10 uM” value is recorded as 1.4%.
The result for `O=C(CCCOc1ccc(Cl)cc1Cl)Nc1ccncc1` reads -4.68%; that for `N=Cc1c(C(F)(F)F)nn(-c2nc3ccccc3s2)c1O`, 2.38%; that for `CC1=C(C(=O)Nc2ccc(Br)cc2)C(c2cccs2)NC(=O)N1` (centres unmarked), -3.69%.
For `N#CCNC(=O)[C@H](Cc1ccccc1Cl)NC(=O)OCc1ccccc1`, the “% Inhibition @ 10 uM” value is listed as -0.207%.
As to `O=C(CSc1c2c(nc3ccc(Cl)cc13)CCCC2)NCCCN1CCOCC1`, the “% Inhibition @ 10 uM” value was -8.9%.
Turning to `CCCNC(=O)N1CCCC(C(N)=O)C1` (centres unmarked), the “% Inhibition @ 10 uM” value is -0.403%.
For `Cc1cc(C)n(-c2ncnc3sc(C)c(C)c23)n1`, the “% Inhibition @ 10 uM” value is recorded as -2.87%.
Regarding `CC(C)(C)C1(C)OC(=O)C(=Cc2ccccc2Cl)C(=O)O1` (centres unmarked), the “% Inhibition @ 10 uM” value is recorded as -2.37%.
As to `O=C(O)c1c(CNCc2ccccn2)c2ccccc2n1Cc1ccccc1`, the “% Inhibition @ 10 uM” value amounted to 6.41%.
Regarding `O=C(Nc1nccs1)c1ccc(-c2ccc(Cl)cc2Cl)o1`, the “% Inhibition @ 10 uM” value is on record as 1.05%.
On to `CCOc1ccc(C2C(C(=O)c3ccc(OC(C)C)cc3)=C(O)C(=O)N2c2ccccn2)cc1` (centres unmarked), for which the “% Inhibition @ 10 uM” value is -7.96%.
As for `O=c1oc2cc(OCc3ccc(F)cc3)c(Cl)cc2c2c1CCC2`, the “% Inhibition @ 10 uM” value is -5.62%.
For `CC(=O)N(C)c1ccc(NS(=O)(=O)c2cc(Cl)ccc2Cl)cc1`, the “% Inhibition @ 10 uM” value was -6.16%.
As for `COc1cccc(C2=Nc3c(c(=O)[nH]c(=O)n3-c3ccccc3)C(C(F)(F)F)(C(F)(F)F)N2)c1`, the “% Inhibition @ 10 uM” value is recorded as 0.26%.
As for `COc1ccc(/C=C2/NC(=O)N(CC(=O)Nc3ccc(C)cc3)C2=O)cc1OC`, the “% Inhibition @ 10 uM” value is -5.35%.
Turning to `COc1ccc(-c2cc(C(F)F)n3ncc(C(=O)Nc4ccc(OC)cc4C)c3n2)cc1`, the “% Inhibition @ 10 uM” value was -5.71%.
For the compound `CC(=O)c1c(O)cc(C)o/c1=N\c1ccc(Oc2ccccc2)cc1`, the “% Inhibition @ 10 uM” value came out at 1.01%.
